According to the supplement of paper PMC11383711:
The list shows a part of the results. Binding of human antibodies (heavy:light variable regions, tested as scFv in one mRNA-display pool) to influenza hemagglutinin, with or without the stem antibody CR9114 bound first. Score = (mean enrichment − median) / interquartile range of that screen; higher = more enriched, 0 = typical non-binder. Active = above the paper's cut-off per screen: stems 28; unblocked H1 Solomon Islands 5, H1 Michigan 3, H3 5, H5 19, H7 2.85, both B 5; blocked 9, 7, H5 10, H7 10, B Phuket 10, B Lee 11.5. Scores are scaled within each screen and are no affinities; replicates correlate at about 0.6 to 0.9, and antibodies rare in the pool are noisier.

B1: K77-2G04 (protein)
chain 1: EVQLVQSGGGVVRPGGSLRLSCAGSGFAFDEYGMTWVRQVPGKGLEWVSNINWHGNSAAYADSVKGRFTISRDNARNSLYLQMNRLRAEDTALYYCARNRQPDTSMDYFYYFGMNVWGQGTTVTVSS
chain 2: DIQMTQSPSSLSASVGDRVTISCQASQDINKYLSWYQQKPGKAPKLLIYDASNLETGVPSRFSGSGSGTEFTLTISSLQPADIATYYCQQYDNVPVTFGRGTNLEIK
B2: antibody 2F04 (protein)
chain 1: EVQLLESGGGLVQPGGSLRLSCAASGFTFSAYSMSWVRQARGKGLEWVSGIGGSGVSIHYADSVKGRFTISRDNSKNTVYLQMNSLRAEDTAVYYCAKSRAWDLKGWFDPWGQGTLVTVSS
chain 2: DIVMTQSPDSLAVSLGERATINCKSSQTVLLNSNNKNSLVWYQQKPGQPPKLLIYWASTRESGVPDRFSGSGSGTDFTLTISSLQVEDVAVYYCQQYYSAPLTFGGGTKVEIK
B3: AG4-C01 (protein)
chain 1: VQLQESGPGLVKPSETLSLTCTVSGGSVTSGNYHWSWIRQSPGKGLEWIAYKYYSGNTKYNPSLKSRVTISLDTSKNQISLKMTSVTAEDTAVYYCARVVLYGSGSYMWFDPWGQGTLVTVSS
chain 2: DIQMTQSPSSLSASVGDRVTITCRASQNIITYLHWYQQKPGKAPKLLIYATSSLQSGVPSRFSGSGSGTDFTLTISSLQPEDFATYYCQQSFSTLLTFGGGTKVEIK
B4: C8-B04 (protein)
chain 1: VQLQESGPGLVKPSETLSLTCTVSGGSIGNYYWNWVRQPPGKGLEWIGYVYNNGGTSYNTSLKSRVTISVDTSKKQFSLRLSSVTAADTAMYYCARLGFGEVFSFKRYYYYGLDVWGRGTTVTVSS
chain 2: DIVMTQSPDTLSLSPGERATLSCRASQSVTSSSLAWYQQKVGQSPRLLIYGASTRATGTPARFSGSGSETDFTLTISSLEPEDFAVYYCQQYGSSVLTFGPGTKVDIK
B5: 31.a.55 (protein)
chain 1: EVQLLESGGGLVKPGGSLRLSCEASEFTFSSHAMSWVRQAPGKGLEWVSAISGNGGSTYYADSVKGRFTISRDNSKNTLYLQMNSLRAEDTALYYCTKDRSPPVFDLMPGYYSSFYYMDVWGKGTTVTVSS
chain 2: EIVMTQSPATLSVSPGERATLSCRASQSVRGNLAWYQQKPGQAPRLLIYGASTRATDIPARFSGSGSGTEFTLTISSLQSEDFAVYYCQQYNHWLRTFGQGTKLEIK
B6: W85-1A11 (protein)
chain 1: EVQLLESGGGLVQPGGSLRLSCTASGFTFSNYAMTWVRQPPGKGLEWVSSISGSGGRTYYADSVKGRFTISRDNSKNTLYLQMNSLRAEDTAVFYCAAASPLLRWYCLDYWGQGTLVPVSS
chain 2: NFMLTQPHSVSESPGKTVTISCTGSSGSITSNYVQWYQQRPGSAPTTVIYEDNQRPSGVPDRFSGSIDSSSNSASLTISGLKTEDEADYYCQSYDSRNYVVFGGGT
B7: 16.ND.89 (protein)
chain 1: QVQLVQSGAEVKEPGASVKVSCKVFGYTLTDLSMHWVRQAPGKGLEWMGGFDPEDDETIYAQNLQGRVTMTEDTSTDTAYMELSSLRSEDTAVYYCTTRDYYDSSGYLVDYWGQGTLVTVSS
chain 2: DIVMTQSPDSLAVSLGERATINCKSSQSVLHWSNNKNYLAWYQQRPGQPPKLLISWASTRESGVPDRFSGSGCGTDFTLTISNLQPEDVAVYYCQQYYNTPPFTFGPGTKVDIK
B8: AG10-A05 (protein)
chain 1: VQLQESGPRLIKPSETLSLTCTVSGGSISSSPYFWGWIRQPPGKGLEWIGSSYYSGNTDYNPSLKSRVTISVDTSKNQFSLKLRSVTAADTAVYYCARRTHDYGDYYYWFDPWGQGTLVTVSS
chain 2: DIQMTQSPSSLSASVGDRVTITCRTSRTIRNYLNWYQQKPGKAPNLLIYTASTLQSGVPSRFNGSGSGTDFTLTISSLQPEDFATYYCQQSYYFGPGTKVDIK
B9: 236-14-IgG-1B03 (protein)
chain 1: QVQLVQSGAEVKKPGASVKVSCKASGYTFADYYIHWVRQAPGQGLEWMGWMNPNTGGTNYAQKFQGRVTMTRDTSIRTAYMELSRLRSDDTAIFYCARDLGDTTTSDYWGQGTLVTVSS
chain 2: SYELTQPPSVSVSPGQTARITCSGDALPQQYASWYQQRPGQAPVLVIYKDTERPSGIPERFSGSTSGTTVTLTISGVQAEDEADYYCQSVDITATFGFGGGTKLTVL
B10: AG9-4B03 (protein)
chain 1: QVQLQESGPGLVKPSETLSLTCADPHSLISSRYYWGWIRQPPGKGLEWIGTIFQSGDTFYNPSLESRVTLFVDTSKNQTSLQLTSVTAADAAVYYCARGLAATGDYYWYALDVWGQGTTVTVSS
chain 2: EIVLTQSPGTLSLSPGERATLSCRASHSISSGYLAWYQHKPGQAPRLVISDTSDRATGIPDRFSGSGSGTDFTLTFSRLEPEDSAVYYCHQYGILPWTFGQGTKVEIK

target: H1 HA stem construct (mini-HA #4900); test: mRNA display binding score; higher = more enriched on the antigen; conditions: antigen blocked with: nothing
Description: (§1)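 A pool of natively paired antibodies, displayed as scFv on mRNA, was selected once on antigen-coated beads and sequenced before and after; two replicates.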

Row | Binder | mRNA display binding score
1 | B1 | inactive: 0.842
2 | B2 | inactive: 0.527
3 | B3 | inactive: 0.489
4 | B4 | inactive: 1.15
5 | B5 | active: 501
6 | B6 | inactive: -0.0556
7 | B7 | inactive: -0.629
8 | B8 | inactive: 1.07
9 | B9 | inactive: 0.51
10 | B10 | inactive: -0.747

target: H3 HA stem construct (H3ssF); test: as above; conditions: antigen blocked with: nothing
Description: as §1

Row | Binder | mRNA display binding score
11 | B1 | inactive: 3.34
12 | B2 | active: 47.9
13 | B3 | inactive: -0.19
14 | B4 | inactive: 0.418
15 | B5 | active: 207
16 | B6 | inactive: -0.478
17 | B7 | inactive: -0.402
18 | B8 | inactive: 0.682
19 | B9 | inactive: 1.42
20 | B10 | inactive: -0.459
